The supplement of paper PMC3724861
This is one part of the list.

Tested on: T1, Caupolican (Caup) homeodomain DNA-binding domain
T1 sequence: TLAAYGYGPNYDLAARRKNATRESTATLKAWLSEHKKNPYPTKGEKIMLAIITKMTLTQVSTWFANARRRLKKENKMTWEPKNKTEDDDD
Assay: PBM E-score (8-mer, recovered from the published 9-mer minima) (E-score (dimensionless, -0.5 to 0.5)); Drosophila protein; higher = stronger relative binding preference, active = 0.31 or more
Summary of the method: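 Caup's homeodomain DNA-binding domain (residues 214-303) was made by in vitro transcription and translation and applied at 100 nM to custom-designed protein binding microarrays. Each value is an enrichment score that gives relative binding preference for a short DNA word, with higher meaning stronger. The 8-mer values were recovered from published 9-mer scores, each of which was the minimum of its two constituent 8-mer scores. A cutoff of 0.31 marks candidate sites.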

Row | Sequence | PBM E-score
1 | AACAGGTA | inactive: 0.174
2 | CTAGTGGC | inactive: -0.0741
3 | CGTCGAAC | inactive: -0.0268
4 | AGACAAAC | inactive: 0.106
5 | CTTTAATA | inactive: 0.0813
6 | ACATGCAG | inactive: 0.294
7 | CTACCGAG | inactive: -0.103
8 | AGCAAGCC | inactive: -0.142
9 | CCGGATGA | inactive: -0.0789
10 | AAGCGTGA | inactive: 0.00049
11 | CTCAGCGA | inactive: -0.115
12 | CCTCGACC | inactive: -0.158
13 | ACTCAAAG | inactive: -0.0118
14 | CCACCCGG | inactive: -0.196
15 | AACAAACT | inactive: 0.23
16 | AGTGGTCA | inactive: -0.0388
17 | ATGAGGTC | inactive: -0.0889
18 | CAAACGAA | inactive: 0.083
19 | GATAAAGC | inactive: -0.0307
20 | AAGCATGT | active: 0.356
21 | AAGGGAGC | inactive: -0.148
22 | ACCTGAAA | inactive: -0.0499
23 | CAGCGGTC | inactive: -0.106
24 | ACTTCCGG | inactive: -0.13

Row | Sequence | PBM E-score
25 | CCGGATCC | inactive: -0.0498
26 | CCCAGTCA | inactive: -0.143
27 | ATTACTGG | inactive: -0.00374
28 | ACTATGTG | inactive: 0.131
29 | ACCTGACA | ≥ 0.218
30 | GGGTGTAC | inactive: 0.193
31 | AGTACATG | active: 0.45
32 | GTAGTCGA | inactive: 0.0815
33 | ACTTAGAG | inactive: -0.125
34 | CGGACTAC | inactive: 0.0344
35 | CAGCAGGC | inactive: -0.0755
36 | CGCGAAGC | inactive: -0.112
37 | CGGCCACG | inactive: -0.216
38 | CGATCACG | inactive: 0.125
39 | ACAGTCTC | inactive: 0.0434
40 | AGCGCAGG | inactive: -0.265
41 | CAGGATTC | inactive: 0.0462
42 | GCACCTTA | inactive: -0.0719
43 | ACGTATTA | inactive: 0.199
44 | GGGTTACA | inactive: 0.176
45 | CACTCGTA | inactive: 0.0572
46 | TCCGCTCA | inactive: -0.156
47 | ATTGAAAC | inactive: 0.129
48 | ACTAATGA | inactive: 0.112

Row | Sequence | PBM E-score
49 | GGAATTGA | inactive: 0.0417
50 | AGGTGATC | inactive: 0.0871
51 | GAGGGTAC | inactive: -0.0497
52 | AGCCGGTG | inactive: -0.117
53 | CTCGCAGA | inactive: -0.107
54 | ATCCTACC | inactive: 0.00768
55 | AGCCAGGC | ≥ -0.0965
56 | CGGCAATA | inactive: 0.0378
57 | TAGAACTA | inactive: 0.127
58 | CGAATTCA | inactive: -0.0438
59 | AAATGGCG | inactive: -0.148
60 | CTGGATCA | inactive: 0.0529
61 | CCTACGTA | inactive: 0.0774
62 | AGCAACGG | inactive: 0.0243
63 | AGCAATGA | inactive: 0.0684
64 | GGAGTTCA | inactive: 0.0472
65 | TGATCACA | inactive: 0.18
66 | ACGATAGT | inactive: 0.162
67 | CTGGGGGC | inactive: -0.38
68 | ATCGGTTG | inactive: 0.114
69 | ATGAGGCG | inactive: -0.106
70 | CCATAACC | inactive: 0.00069
71 | GACACTGC | inactive: 0.0893
72 | CCAAACTA | inactive: 0.129

Row | Sequence | PBM E-score
73 | CGGAAAGA | inactive: -0.101
74 | GAGCTGCC | inactive: -0.213
75 | AACGAACT | inactive: -0.0695
76 | TCGTCGCA | inactive: -0.0385
77 | CTGGTGTC | inactive: 0.0585
78 | CTCGACAG | inactive: -0.0136
79 | CACAATCC | inactive: 0.107
80 | AAGGAGCA | inactive: -0.0889
81 | ATTTTTAG | inactive: -0.0375
82 | ACTCACGA | ≥ 0.0229
83 | CAGTCACA | inactive: 0.137
84 | CTAGGGGA | inactive: -0.158
85 | AATCTCAT | ≥ 0.142
86 | ACAACGAG | inactive: 0.144
87 | ATGCGGTA | inactive: 0.0513
88 | TATTACAA | active: 0.341
89 | AGCCAAAT | inactive: -0.0112
90 | AAATGTCG | inactive: 0.144
91 | CCGTCTGC | inactive: -0.133
92 | ACAGAACG | inactive: 0.0766
93 | AGGTCCGG | inactive: -0.126
94 | CGCCTGCC | inactive: -0.256
95 | GCTACCGA | inactive: -0.0973
96 | CTCCGCTA | inactive: -0.0723

Row | Sequence | PBM E-score
97 | AAGTCCGC | inactive: -0.152
98 | AACCTCTT | ≥ 0.0676
99 | AACGCTAC | inactive: 0.0208
100 | GCAAATCA | inactive: 0.0324
101 | ATATCGTC | inactive: 0.107
102 | AAGCTCAT | inactive: -0.0426
103 | GCTCTCAC | inactive: -0.169
104 | CCTCACCC | inactive: -0.166
105 | AGGATCCA | inactive: -0.074
106 | CCGAGAAC | inactive: -0.0456
107 | ACGCTGCA | inactive: -0.0935
108 | GACGCACC | inactive: -0.137
109 | GGATCGAA | inactive: 0.0137
110 | AAATAGCG | inactive: 0.092
111 | CAACCGTA | inactive: 0.0275
112 | CGCTATCA | inactive: -0.0506
113 | AATCCTCA | inactive: -0.017
114 | AAGCTGCC | inactive: -0.152
115 | CAAAACTA | ≥ 0.24
116 | GTCGGTGA | inactive: -0.0468
117 | GATCCCTA | inactive: -0.0989
118 | CACGAAAA | inactive: 0.109
119 | ACCTTGTA | active: 0.412
120 | ATAATATG | inactive: 0.153

Row | Sequence | PBM E-score
121 | CCCCTGTC | inactive: -0.0357
122 | CCGTTTTC | inactive: -0.0987
123 | AACTCCCA | inactive: -0.0951
124 | ACACCTTG | inactive: 0.201
125 | AGGCCTAA | inactive: -0.0475
126 | AACGTTAA | inactive: 0.116
127 | ATTAGGAA | inactive: 0.0485
128 | AGCGGACT | inactive: -0.149
129 | CGGCTAAC | inactive: -0.0855
130 | GATTTCCC | inactive: -0.0737
131 | GGATCAAC | inactive: -0.00338
132 | CAATGTAC | inactive: 0.287
133 | GATGACTA | inactive: -0.029
134 | ATACTAGC | inactive: 0.146
135 | CCGGCCAG | inactive: -0.253
136 | ATTTACAC | inactive: 0.259
137 | CCCCATTA | inactive: -0.101
138 | GAATGTAC | inactive: 0.165
139 | AAGAACGC | inactive: -0.0522
140 | CTCGAGCC | inactive: -0.14
141 | ATTGGTTG | inactive: 0.064
142 | ATAAAAAT | inactive: 0.0878
143 | CTGTAATA | inactive: 0.193
